From PubChem BioAssay AID1508623 (National Center for Advancing Translational Sciences (NCATS), 2021)
Among all 48,000 compounds or so, about 450 (0.94%) were called active. Inconclusive results (about 19%) are left out. Calls follow the shape of the dose curve; as a rule, active = well fitted inhibition curve with a large enough effect; inconclusive = small, poorly fitted or top-dose-only effect; inactive = no such curve, though single readings can be large or run the other way. The list shows a part of the results.

test: Primary qHTS for Identification of Small Molecule Inhibitors of Huntingtin Promoter Activity; details: HEK293 HTT promoter firefly luciferase reporter (activity 0% = vehicle and -100% = no light), 24 h; series mostly up to 57.5 µM; activity change, negative = inhibition: at the top concentration; also: nearly all actives have a fitted effect of over 50% in size
Method in brief: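 Firefly luciferase signal from promoter-reporter HEK293 cells was scaled between vehicle (0%) and zero RLU (-100%). Compounds were tested at final concentrations of up to 57.5 uM over 24 h at 37 degrees C. PTC124 at 50 uM final served as control inhibitor.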

Compound | activity change, negative = inhibition
Cc1[nH]c2ccccc2c1C(c1ccccc1)c1cccs1 (configuration not stated) | inactive: -25.3%
O=C(O)CN1C(=O)c2cccc3cccc(c23)C1=O | inactive: -0.0495%
Cc1cccc(-n2c(SCc3nc(-c4ccccc4C)no3)nnc2-c2ccccc2)c1 | inactive: -8.1%
CN1CCN(c2oc(/C=C/c3ccc(F)cc3)nc2C#N)CC1 | inactive: -9.84%
FC(F)(F)C(Cl)Br (configuration not stated) | inactive: 7.22%
COc1cc(NC(=O)c2nn(-c3ccc(C)cc3)c(=O)c3c2c2ccccc2n3C)cc(OC)c1OC | inactive: -16.1%
CCc1nn(CC(=O)NC(C)CC)c(=O)c2cc3c(OC)cccc3n12 (configuration not stated) | inactive: -2.68%
CC[N+](C)(CC)CCOC(=O)C1c2ccccc2Oc2ccccc21 | inactive: 6%
CCOc1ccc(-n2nc(CO)c(C(=O)NCc3cccnc3)n2)cc1 | inactive: -24.2%
COc1ccc(-c2noc(-c3ccc(N4CCN(c5ccc(OC)cc5)CC4)c([N+](=O)[O-])c3)n2)cc1 | inactive: 0.569%
Cc1cccn2c(=O)c(C(=O)NCc3ccccc3Cl)c(O)nc12 | inactive: -6.58%
COc1cccc(N2CCN(C(=O)c3cc4c(=O)n(Cc5ccccc5)ccc4nc3C)CC2)c1 | inactive: -30.6%
CCC(=O)N1c2ccccc2CC1C(=O)NCc1cccc(C)c1 (configuration not stated) | inactive: -24.7%
CCN(CC)CCCNC(=O)Cn1nc(C)n2c(cc3sccc32)c1=O | inactive: -4.26%
Cc1ccc(C(=O)c2oc3ccccc3c2NC(=O)Cc2coc3cc(C)ccc23)cc1 | inactive: -14.6%
COc1ccc(CCNC(=O)Cn2c(=O)n(-c3ccc(C)c(C)c3)c(=O)c3c(C)c(C)sc32)cc1OC | inactive: -6.87%
COc1ccc(Cn2nnc3c(=O)[nH]c(C4CCCN(C(=O)c5ccc(C)cc5)C4)nc32)cc1 (configuration not stated) | inactive: -24.3%
CCCCc1ccc(NC(=O)Cn2nnc3sc4c(c3c2=O)CCC(C)C4)cc1 (configuration not stated) | inactive: -9.41%
COc1ccc(NC(=O)c2ccc3oc(=O)c(S(=O)(=O)c4ccc(C)cc4)cc3c2)cc1OC | inactive: -8.16%
Cc1nn(S(=O)(=O)c2ccccc2)c(C)c1S(=O)(=O)N1CCC(C)CC1 | inactive: -19%
COc1ccc(OC)c(C(=O)c2c(N)c(-c3nc(-c4ccc(C)c(C)c4)cs3)c3ccccn23)c1 | inactive: -4.04%
Clc1cccc(CSc2nncn3c2cc2sccc23)c1 | inactive: 1.66%
CCOC(=O)C1(C)C=C(Nc2ccc(Br)cc2)C(=O)N1c1ccccc1 (configuration not stated) | inactive: 1.41%
COc1ccc(CC(=O)NC2CC(=O)N(c3cccc(F)c3)C2)cc1 (configuration not stated) | inactive: 0.322%
Cc1ccc(-c2nnc(Nc3ccc(Br)cc3)c3ccccc23)cc1S(=O)(=O)N1CCN(C)CC1 | inactive: -33.2%

Compound | activity change, negative = inhibition
Cc1ccc(OCC(=O)Nc2ccc(OCc3cc(=O)n4cccc(C)c4n3)cc2)cc1C | inactive: -7.75%
COc1ccc(CCNC(=O)Cc2c(C)c3c(cc(C)c4c(C)coc43)oc2=O)cc1OC | inactive: -7.23%
CCN(C(=O)C(=O)Nc1ccc2nc3n(c(=O)c2c1)CCCCC3)c1ccc(F)cc1 | inactive: 0%
COc1ccc(CCNC(=O)c2ccc3c(c2)CCN3S(C)(=O)=O)cc1 | inactive: -12.5%
Cc1c(C(=O)N(Cc2ccc(N(C)C)cc2)C2CCS(=O)(=O)C2)oc2ccccc12 (configuration not stated) | inactive: 3.97%
Cc1ccc2sc(N(Cc3cccnc3)C(=O)CCOc3ccccc3)nc2c1C | inactive: -29.5%
O=C(O)CCCCCCCC(=O)O | inactive: 9.71%
COc1ccc(OC)c(C2NC(=O)NC(C)=C2C(=O)Nc2cc(C)cc(C)c2)c1 (configuration not stated) | inactive: -7.98%
O=C(c1ccc2c(c1)N(Cc1ccccc1)C(=O)c1ccccc1S2(=O)=O)N1CCN(c2ccccc2)CC1 | inactive: -12.8%
Cc1nnc(NC(=O)CSc2nc3c([nH]c4ccccc43)c(=O)n2-c2ccccc2)s1 | inactive: 0.496%
CC(O)CN(CCN(CC(C)O)CC(C)O)CC(C)O (configuration not stated) | inactive: -1.33%
COc1ccc(C2CC(=O)c3cc(-c4nc(-c5cccc([N+](=O)[O-])c5)cs4)c(=O)n(-c4ccc(C)c(C)c4)c3C2)cc1 (configuration not stated) | inactive: -11%
CCC(Sc1nc2ccccc2c2nc(CCn3cncc3C)nn12)C(=O)Nc1cccc(OC)c1 (configuration not stated) | inactive: -16.6%
CCC1CCCCN1CCCNC(=O)CN1C(=O)c2cccnc2Oc2ccc(Cl)cc21 (configuration not stated) | inactive: 5.9%
COc1ccc(Cn2c(CNC(=O)c3ccc(N(C)C)cc3)nc3cccnc32)cc1 | inactive: -9.34%
O=C(Cn1cc(SCc2ccc(C(F)(F)F)cc2)c2ccccc21)N1CCCCCC1 | inactive: -24.2%
Cc1ccc2oc(=O)c3cc(C(=O)Nc4ccc(F)cc4F)sc3c2c1 | inactive: -4.67%
COc1ccc(CCNC(=O)c2ccc(Cn3c(=O)c4ccccc4n(Cc4cc(C)ccc4C)c3=O)cc2)cc1OC | inactive: -7.03%
Fc1ccc(Nc2nc3ccccc3c3nncn23)c(Cl)c1 | inactive: 0.323%
Cc1cc(C)c2nc(N3CCCC(C(=O)NCc4cccc(Br)c4)C3)sc2c1 (configuration not stated) | inactive: 19.5%
Cc1ccc(NC(=O)c2oc3ccc(S(=O)(=O)N4CCCCCC4)cc3c2C)cc1Cl | inactive: -6.87%
CC(C)CSc1nnc(-c2ccccc2)c(-c2ccccc2)n1 | inactive: -22.5%
COc1ccc(C)c2sc(N(Cc3cccnc3)C(C)=O)nc12 | inactive: -31%
Cc1ccc(Cl)cc1NC(=O)CN1C(=O)c2cccc3cccc1c23 | inactive: -7.58%
COc1ccc(-c2nc3ccccc3s2)cc1NC(=O)COc1ccccc1C | inactive: 0.31%

Compound | activity change, negative = inhibition
COc1ccccc1OCCn1c(NC(=O)c2ccc(Cl)cc2)nc2ccccc21 | inactive: -10.6%
CN(C)c1ccc(CNC(=O)CN2C(=O)c3cccnc3Oc3ccc(Cl)cc32)cc1 | inactive: 6.19%
Cc1nn(CC(=O)NCc2cccc(Br)c2)c(=O)c2c1sc1ccccc12 | inactive: -1.48%
Cc1cc(C)c(S(=O)(=O)NCCc2cc3cc(C)c(C)cc3[nH]c2=O)c(C)c1 | inactive: -9.57%
O=S(=O)(NCCc1nnc2ccc(SCc3ccc(C(F)(F)F)cc3)nn12)c1ccccc1 | inactive: -21.1%
COc1cccc(C(c2sc3nc(-c4ccco4)nn3c2O)N2CCOCC2)c1 (configuration not stated) | inactive: 3.88%
Cc1ccc(Nc2nc3ccc(C)cc3nc2-n2nc(C)cc2C)c(C)c1 | inactive: 1.82%
CC(C)C(=O)Nc1nnc(S(=O)(=O)N2CCCCCC2)s1 | inactive: -5.48%
COc1ccc(N(CC(=O)NCc2ccccc2Cl)S(=O)(=O)c2c(C)[nH]c(=O)[nH]c2=O)cc1 | inactive: -21.8% [at 11.5 µM]
O=C(C1COc2ccccc2O1)N1CCN(c2nc3c(F)cccc3s2)CC1 (configuration not stated) | inactive: 15.8%
NS(=O)(=O)c1cc(C2(O)NC(=O)c3ccccc32)ccc1Cl (configuration not stated) | inactive: 11.4%
COCCNC(=O)C1CCC(CNS(=O)(=O)c2ccc3c(c2)CC(C)N3C(C)=O)CC1 (configuration not stated) | inactive: -11.9%
COc1cc(C(CC(=O)Nc2ccc(Br)cn2)N2Cc3ccccc3C2=O)cc(OC)c1OC (configuration not stated) | inactive: -12.1%
Cc1c(C(=O)Nc2cccc(F)c2)oc2c1-c1nn(Cc3c(F)cccc3Cl)cc1CC2 | inactive: -4.22%
Cc1ccc(Cn2c(=O)n(CC3CCC(C(=O)N4CCC(C)CC4)CC3)c(=O)c3sccc32)cc1 (configuration not stated) | inactive: -1.82%
Cc1ccc(CNC(=O)c2c(O)nc3ccccn3c2=O)cc1 | inactive: -8.22%
Cc1c(Cl)cccc1NC(=O)NCc1c(-n2cccc2)sc2c1CCCC2 | inactive: -6.85%
Cc1ccc(N(Cc2cccs2)C(=O)Nc2cccc(Cl)c2)cc1 | inactive: -13.3%
Cc1oc2c(c1C(=O)Nc1ccccc1Br)C1=NCCN1C=N2 | inactive: -1.72%
O=C(NCCc1cccs1)c1ccc(Cn2c(SCc3ccccc3)nc3cccnc32)cc1 | inactive: -3.33%
COc1cccc(CNC(=O)c2sc3nc4n(c(=O)c3c2C)CCC4)c1 | inactive: 24.9%
CCOc1ccccc1NC(=O)Cn1cnc2c1c(=O)n(C)c(=O)n2C | inactive: -6.68%
COc1ccc(N2CC3=C(C2=O)C(c2ccc(O)c(OC)c2)NC(=O)N3C)cc1 (configuration not stated) | inactive: -0.586%
CCOC(=O)c1ccccc1NC(=O)c1cc2c(s1)-c1c(C)cccc1OC2 | inactive: -22.8%
CCOc1ccccc1NC(=O)CSc1nc2c(oc3ccccc32)c(=O)n1C(C)C | inactive: -11.6%

Compound | activity change, negative = inhibition
COCCCNC(=O)c1cc(-c2ccc(OC)cc2)nc2n[nH]c(-c3ccc(Cl)cc3)c12 | inactive: -26.2%
COc1ccc(CCNC(=O)c2cnc3ccc(C)cn3c2=O)cc1OC | inactive: -7.52%
Cn1ncc2c(NCc3ccc(Cl)cc3)ncnc21 | inactive: -17.3%
Cc1ccsc1CN(Cc1ccco1)C(=O)c1ccc(Cl)cc1 | inactive: -23.5%
Cc1ccc(C)c(N2CCN(S(=O)(=O)c3ccc(-c4cc(C(F)(F)F)on4)s3)CC2)c1 | inactive: -1.9%
O=C(CN1C(=O)COc2ccc(S(=O)(=O)N3CCOCC3)cc21)Nc1ccc(F)c(Cl)c1 | inactive: -16.1%
O=C(Nc1nc2ccc(F)cc2s1)c1nc(SCc2ccccc2F)ncc1Cl | inactive: -12.5%
COc1cc(OC)c(N(C)C(=O)c2cn(C)c(=O)c3cc(OC)c(OC)cc23)cc1Cl | inactive: -2.7%
O=C(Nc1nc2c(F)cc(F)cc2s1)c1ccc2c(c1)OCCO2 | inactive: 73%
O=C(NCCc1ccc(Cl)cc1)C(=O)NCC(c1ccc2c(c1)OCO2)N1CCOCC1 (configuration not stated) | inactive: 0.35%
CC(C)c1c(C(=O)Nc2ccccc2)c(-c2ccccc2)c(-c2ccc(F)cc2)n1CC[C@@H](O)C[C@@H](O)CC(=O)O | inactive: 17.9%
O=C(Nc1cc(C(F)(F)F)ccc1Cl)c1cc(-c2cccs2)nc2ccccc12 | inactive: -1.77%
Cc1cc(C)c(S(=O)(=O)NCCc2sc(-c3cccnc3)nc2C)c(C)c1 | inactive: -25.9%
Cc1cc(S(=O)(=O)Nc2cc3c(cc2Cl)n(C)c(=O)c(=O)n3C)ccc1F | inactive: -11.8%
Cn1c(=O)c2cc(C(=O)N3CCN(c4cccc(C(F)(F)F)c4)CC3)sc2c2ccccc21 | inactive: -19.1%
Cc1nn(S(=O)(=O)c2ccc(F)cc2)c(C)c1S(=O)(=O)N1CCCCC1 | inactive: -7.8%
Cc1c(C(=O)Nc2cccc(C(F)(F)F)c2)oc2ccc(S(=O)(=O)N3CCC4(CC3)OCCO4)cc12 | inactive: -30.8%
CCN[C@H]1CN(CCCOC)S(=O)(=O)c2sc(S(N)(=O)=O)cc21 | inactive: -4.95%
COc1ccc(NC(=O)CSc2c3c(nc4ccccc24)CCC3)cc1Cl | inactive: -14.9%
Cc1ccc2c(c1)N(C(=O)CCC(=O)Nc1ccc(F)cc1F)CC(C)O2 (configuration not stated) | inactive: -34.5%
CCOc1ccc(NC(=O)c2ccc3c(c2)nnn3C2CCCC2)cc1 | inactive: -10.2%
CCc1ccccc1NC(=O)CSc1nc(C)c(C(=O)Nc2ccccc2)c(-c2ccc(Cl)cc2)c1C#N | inactive: -38.9%
